# Hit rate of the full screen: of about 230,000 compounds, about 1,500 (0.65%) were called active. The inconclusive results got no clear call from the source; some entries with a clear call stand among them for comparison. The call rests on the fitted dose curve; in most records, active means well fitted inhibition curve with a large enough effect; inconclusive means small, poorly fitted or top-dose-only effect; inactive means no such curve, though single readings can be large or run the other way. A potency beside an inconclusive call is a rough fit, not a confirmed value.
# Target: Lethal(3)malignant brain tumor-like protein 1 (Homo sapiens) (UniProt Q9Y468)
# Test: qHTS Assay for the Inhibitors of L3MBTL1; further: nearly all actives have a fitted effect of over 60% in size
# Settings: AlphaScreen L3MBTL1–H3K9me1 peptide binding; activity, negative = inhibition: at 57.1 µM (top of the series)
# In short: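 First, the protein-peptide complex forms for 30 min at room temperature (L3MBTL1 50 nM, biotinylated H3K9me1 peptide 75 nM). Next, compounds are pin-transferred and incubated 30 min. Finally, AlphaScreen beads are added and read after 30 min.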
# On the % scale 0 is the no-effect control and ±100 the full control effect; potency means the concentration at half of the fitted maximal effect; tags describe the fitted curve by direction and shape.
# Chain of UniProt Q9Y468 (Q9Y468 whole entry, looked up): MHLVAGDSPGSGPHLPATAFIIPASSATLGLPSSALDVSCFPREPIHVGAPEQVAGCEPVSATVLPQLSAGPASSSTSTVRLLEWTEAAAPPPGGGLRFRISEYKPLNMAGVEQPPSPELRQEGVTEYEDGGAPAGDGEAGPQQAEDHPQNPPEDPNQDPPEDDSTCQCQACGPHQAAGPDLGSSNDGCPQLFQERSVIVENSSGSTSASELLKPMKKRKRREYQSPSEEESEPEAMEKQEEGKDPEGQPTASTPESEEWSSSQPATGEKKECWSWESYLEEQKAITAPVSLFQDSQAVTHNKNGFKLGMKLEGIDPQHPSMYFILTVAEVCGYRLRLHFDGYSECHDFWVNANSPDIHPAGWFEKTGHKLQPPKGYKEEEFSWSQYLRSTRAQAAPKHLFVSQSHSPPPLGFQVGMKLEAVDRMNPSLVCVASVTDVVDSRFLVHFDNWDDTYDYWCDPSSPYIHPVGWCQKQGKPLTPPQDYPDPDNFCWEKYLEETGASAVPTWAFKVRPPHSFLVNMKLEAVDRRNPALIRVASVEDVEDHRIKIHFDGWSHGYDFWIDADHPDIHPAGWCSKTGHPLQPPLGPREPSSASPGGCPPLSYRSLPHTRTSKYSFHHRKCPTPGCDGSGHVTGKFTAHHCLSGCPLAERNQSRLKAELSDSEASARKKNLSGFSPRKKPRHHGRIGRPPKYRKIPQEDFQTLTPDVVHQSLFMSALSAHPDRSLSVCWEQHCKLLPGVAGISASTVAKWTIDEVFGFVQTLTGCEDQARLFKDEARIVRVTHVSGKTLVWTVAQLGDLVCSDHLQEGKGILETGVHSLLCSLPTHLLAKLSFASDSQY
Structure (SMILES),"activity, negative = inhibition",Potency
O=C(N/N=C/c1ccc2c(c1)OCO2)/C(=C/c1ccc2c(c1)OCO2)NC(=O)c1ccccc1,inactive: -4.69%,
COc1cnc(-c2ccccn2)nc1Oc1ccc(F)cc1F,,"inconclusive: 25.1 µM [inhibitor, partial curve]"
O=C(Nc1ccc(S(=O)(=O)Nc2ncccn2)cc1)c1ccc(Br)o1,,"inconclusive: 0.282 µM [inhibitor, full curve]"
Cc1cc(C(=O)O)ccc1-n1c(C)cc(/C=C(/C#N)C(=O)Nc2ccccc2)c1C,,"inconclusive: 22.4 µM [inhibitor, single point]"
O=C(O)c1ccccc1C(=O)Nc1n[nH]c(=S)s1,,"inconclusive: 31.6 µM [inhibitor, single point]"
CCCCC(=O)Nc1nc(C)c(-c2csc(Nc3cc(OC)ccc3OC)n2)s1,inactive: -11.6%,
O=C(O)COn1c(-c2ccccc2)nc2ccc([N+](=O)[O-])cc21,,"inconclusive: 31.6 µM [inhibitor, partial curve]"
CN(CC(=O)Nc1ccccc1C(F)(F)F)C(=O)c1cccc(-n2cccc2)c1,,"inconclusive: 39.8 µM [inhibitor, single point]"
COc1ccc(OC)c(NC(=O)CSc2nc3ccccc3c(=O)n2CCNC(C)=O)c1,,"inconclusive: 7.08 µM [inhibitor, single point]"
CCOCCCNC1=C(Cl)C(=O)c2ccccc2C1=O,,"inconclusive: 14.1 µM [inhibitor, partial curve]"
O=C(CNCc1cccs1)Nc1ccc(N2CCCCCC2)cc1,inactive: -19.4%,
CC1=NN(c2ccc(C)c(C)c2)C(=O)/C1=C\C=C\c1ccc([N+](=O)[O-])o1,,"inconclusive: 39.8 µM [inhibitor, partial curve, poor fit]"
CCc1nc2oc3ccccc3c(=O)c2c(=O)n1-c1ccc(C)cc1,,"inconclusive: 28.2 µM [inhibitor, partial curve]"
Oc1ccccc1/C=N/NC(=S)NC1CC2C=CC1C2 (stereo unspecified),,"inconclusive: 14.1 µM [inhibitor, partial curve]"
Cc1cc(Nc2ccc(C)c(Br)c2)n2nc(C)nc2n1,,"inconclusive: 7.08 µM [inhibitor, single point]"
CC(OC(=O)Cn1cnc2c1c(=O)n(C)c(=O)n2C)C(=O)NC(C)c1ccc(Cl)cc1Cl (stereo unspecified),inactive: -0.973%,
Cc1nc2c(C(=O)NCc3ccccc3Cl)c[nH]n2c(=O)c1Cl,inactive: -0.451%,
CCc1cc(-c2n[nH]c(=S)n2N)n(C)n1,inactive: 5.63%,
CC(C)[C@@H]1NC(=O)c2cc([N+](=O)[O-])cc(I)c2NCCCC[C@@H](C(=O)NC(CC(=O)O)C(N)=O)NC(=O)[C@H](CO)NC1=O (stereo partly specified),,"inconclusive: 39.8 µM [inhibitor, single point]"
Nc1ccc(O)c([N+](=O)[O-])c1,,"inconclusive: 39.8 µM [inhibitor, single point]"
COc1ccc2c(c1)c(/C=N/Nc1nc3ccccc3[nH]1)c(C)n2C,,"inconclusive: 3.16 µM [inhibitor, full curve, poor fit]"
CC(C)CN(C(=O)COC(=O)c1ccc(-c2ccccc2)cc1)C1CCS(=O)(=O)C1 (stereo unspecified),,"inconclusive: 35.5 µM [inhibitor, single point]"

Structure (SMILES),"activity, negative = inhibition",Potency
O=C(COc1ccc(Br)cc1)N1CCN(c2ccc([N+](=O)[O-])c(N3CCCCC3)c2)CC1,,"inconclusive: 0.794 µM [inhibitor, single point]"
O=C1NN(c2ccccc2)C(=O)/C1=C/c1ccc(Sc2cccc3ccccc23)o1,,"inconclusive: 39.8 µM [inhibitor, single point]"
O=C1CC(=C2c3ccccc3-c3ccccc32)C(=O)N1CCCCN1CCN(c2ccccc2)CC1,,"inconclusive: 15.8 µM [inhibitor, partial curve]"
CC1(C)CC(=O)/C(=C(\O)Cc2ccccc2)C(=NCCCCCC(=O)O)C1,inactive: 11.1%,
CSc1ncc(-c2ccc(Cl)cc2)[nH]1,,"inconclusive: 14.1 µM [inhibitor, partial curve]"
Cc1ccc(N=Nc2ccc(O)cc2)c(Br)c1,,"inconclusive: 39.8 µM [inhibitor, single point]"
CCOC(=O)c1c(NC(=S)N2CCN(C)CC2)sc2c1CCN(C(=O)OCC)C2,,"inconclusive: 28.2 µM [inhibitor, partial curve]"
CC1=NN(c2ccccc2)C(=O)/C1=C\c1c(C)[nH]n(-c2ccccc2)c1=O,inactive: -14.7%,
O=C1NC(=Nc2ccccc2)S/C1=C\C=C\c1ccco1,,active: 3.16 µM
CC1=CC(C)(C)Nc2ccc(OC(=O)c3cccnc3)cc21,,"inconclusive: 15.8 µM [inhibitor, partial curve]"
Cc1ccccc1-c1nnn(Cc2ccc(-c3nn[nH]n3)cc2)n1,,"inconclusive: 0.141 µM [inhibitor, full curve, poor fit]"
COc1ccc(C)cc1NCc1ccc(OC)c(C)c1OC,inconclusive: -39% [inhibitor],
COCCN(C(=O)c1cc(Cl)ccn1)c1c(N)n(Cc2ccccc2)c(=O)[nH]c1=O,inactive: 3.55%,
CCNc1nc(NCC)n2c(SCC(=O)Nc3cccc(Cl)c3)nnc2n1,,"inconclusive: 25.1 µM [inhibitor, single point]"
COc1ccccc1OCc1nnc(SCC(=O)NCc2ccco2)n1Cc1ccco1,,"inconclusive: 31.6 µM [inhibitor, single point]"
Cc1ccc(S(=O)(=O)NCC(=O)N(CC(=O)NCC2CCCO2)Cc2ccco2)cc1 (stereo unspecified),,"inconclusive: 25.1 µM [inhibitor, single point]"
CN(C(=S)NC(=O)C1CC1)c1ccc(O)cc1,inactive: 8.49%,
Cc1cc(/C=N/n2c(COc3ccccc3)nc3ccccc3c2=O)c(O)c([N+](=O)[O-])c1,,active: 5.62 µM
Cc1ccc(NC(=O)c2[nH]cnc2C(=O)NN)cc1,,"inconclusive: 25.1 µM [inhibitor, partial curve, poor fit]"
O=C(CN1CC[n+]2c(-c3cccs3)csc21)c1ccc(-c2ccccc2)cc1,,"inconclusive: 39.8 µM [inhibitor, single point]"
C(=N\Nc1nc(N2CCCCC2)nc(N2CCCCC2)n1)/c1c[nH]c2ccccc12,,"inconclusive: 39.8 µM [inhibitor, single point]"
COc1ccc(N2CCN(CCCNC(=O)c3cc4sccc4n3C)CC2)cc1,,"inconclusive: 15.8 µM [inhibitor, partial curve]"

Structure (SMILES),"activity, negative = inhibition",Potency
Cc1ccc(C2CC(c3cccs3)=NN2C(=O)CSc2nc3ccccc3o2)cc1 (stereo unspecified),,"inconclusive: 0.794 µM [inhibitor, partial curve, poor fit]"
O=C(CSc1nnc(-c2cccnc2)o1)Nc1ccc(Cl)cc1,,"inconclusive: 0.178 µM [inhibitor, full curve, poor fit]"
Cc1cc2nc(-c3ccc(SCc4ccccn4)nc3)[nH]c2cc1C,,"inconclusive: 31.6 µM [inhibitor, partial curve]"
COc1ccc(-c2nnc(SCC(=O)Nc3c(Cl)cc(Cl)cc3C(=O)O)o2)cc1,inactive: 14%,
COc1ccc(NC(=O)COc2ccc3c(c2)CCC3)cc1,,"inconclusive: 0.562 µM [inhibitor, full curve]"
O=C(O)/C=C\C(=O)Nc1ccc(N2CCN(c3ccc(F)cc3)CC2)cc1,,"inconclusive: 25.1 µM [inhibitor, single point]"
Cc1cc(/C=N/n2c(COc3ccccc3C)nc3ccccc3c2=O)c(O)c([N+](=O)[O-])c1,,"inconclusive: 6.31 µM [inhibitor, full curve, poor fit]"
N#Cc1ccccc1OCC(=O)OCC(=O)NC1CCS(=O)(=O)C1 (stereo unspecified),,"inconclusive: 39.8 µM [inhibitor, single point]"
COc1cc(C(=O)OCC(=O)NC(=O)NC2CCCCC2)cc(Cl)c1OC,inactive: -2.05%,
CC1=NN(c2nc3ccccc3[nH]2)C(=O)C1Cc1ccccc1 (stereo unspecified),,active: 20 µM
CCOc1ccccc1/C=N/Nc1ccccc1[N+](=O)[O-],,"inconclusive: 4.47 µM [inhibitor, partial curve]"
O=[N+]([O-])c1ccc(C=Nc2cccc3ccccc23)s1,,"inconclusive: 14.1 µM [inhibitor, partial curve]"
CC(=O)OCCNc1cc(Sc2nc3ccccc3[nH]2)c2nonc2c1[N+](=O)[O-],,"inconclusive: 39.8 µM [inhibitor, single point]"
COc1ccc(-c2cc3c(nn2)-c2ccccc2C3=O)cc1,,"inconclusive: 3.16 µM [inhibitor, full curve]"
CCCCCCCCNC(=O)c1cccnc1SCC(=O)Nc1ccccc1OC,,"inconclusive: 31.6 µM [inhibitor, single point]"
Cc1ccc(C)c(NC(=S)c2ccc3ccccc3n2)c1,,"inconclusive: 11.2 µM [inhibitor, partial curve]"
O=C(NCC1CCCO1)c1csc(Nc2cccc3ccccc23)n1 (stereo unspecified),,"inconclusive: 22.4 µM [inhibitor, single point]"
O=C(OCC(=O)N1CCN(C(=O)c2ccco2)CC1)c1cc(-c2ccco2)nc2ccccc12,,active: 8.91 µM
c1ccc2nc(-c3ccc(N4CCOCC4)cc3)ccc2c1,,"inconclusive: 6.31 µM [inhibitor, single point]"
N#Cc1nc(-c2ccco2)oc1N1CCN(c2cccc(Cl)c2)CC1,,"inconclusive: 17.8 µM [inhibitor, partial curve]"
COc1ccc(OCCCC(=O)NCc2ccco2)cc1,,"inconclusive: 6.31 µM [inhibitor, single point]"
CCN(CC)c1ccc(/C=N/NC(=O)CN2CCCc3ccccc32)cc1,,"inconclusive: 25.1 µM [inhibitor, single point]"

# Reference: PubChem BioAssay AID485360 (National Center for Advancing Translational Sciences (NCATS), 2010)
